Test results: the supplement of paper PMC3334620
The full ranking holds about 33,000 sequences; the median of “E-score (-0.5 to 0.5)” is about -0.016, and the highest 2% start at about 0.32. The list shows a part of the results.

Biological target: T1, Stp1 (UniProt B3LFK1)
T1 sequence: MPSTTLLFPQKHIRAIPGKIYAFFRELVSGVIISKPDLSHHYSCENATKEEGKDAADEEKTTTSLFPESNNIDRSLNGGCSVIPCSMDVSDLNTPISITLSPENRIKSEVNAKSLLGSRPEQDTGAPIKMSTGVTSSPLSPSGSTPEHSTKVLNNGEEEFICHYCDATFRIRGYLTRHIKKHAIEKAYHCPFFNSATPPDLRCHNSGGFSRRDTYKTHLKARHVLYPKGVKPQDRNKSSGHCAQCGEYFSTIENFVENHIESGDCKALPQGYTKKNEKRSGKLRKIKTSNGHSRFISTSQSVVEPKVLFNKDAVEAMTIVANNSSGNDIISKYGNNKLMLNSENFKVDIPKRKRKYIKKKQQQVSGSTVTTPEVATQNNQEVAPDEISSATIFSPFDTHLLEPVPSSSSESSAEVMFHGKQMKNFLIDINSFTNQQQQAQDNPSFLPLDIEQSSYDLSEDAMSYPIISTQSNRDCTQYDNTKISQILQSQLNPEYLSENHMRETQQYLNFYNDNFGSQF
Assay: PBM E-score (8-mer binding enrichment) (E-score (-0.5 to 0.5)); higher = stronger / more preferred TF binding; most listed sequences are background and not binding sites
Details: protein concentration: 200 nM; construct: GST-full length
In short: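 For each ungapped eight-base word taken together with its reverse complement, the Universal PBM Analysis Suite assigned an E-score. Binding data came from GST-tagged yeast transcription factors, applied at about 100-200 nM, on universal all-10-mer Agilent arrays made double-stranded by primer extension. Fluorescent anti-GST marked bound protein, and scans were normalised with masliner.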

Row | Sequence | PBM E-score
1 | CACCCCTC | -0.222
2 | CAAGATTG | 0.0193
3 | CCTGCAGG | -0.391
4 | CATAGTCA | -0.195
5 | ACCCGTGC | 0.237
6 | GTTTATAA | 0.223
7 | CGAGTCTC | -0.278
8 | CGACCTAA | 0.164
9 | CCCTGGCC | -0.213
10 | CTTTATTC | -0.0256
11 | GAAGAAAA | 0.038
12 | ATCGGTTA | 0.0451
13 | GCCACCGC | 0.0746
14 | GTTCTACA | -0.0548
15 | CGGCTGCA | 0.211
16 | ATCCTAGC | -0.102
17 | AGAAACCA | -0.0398
18 | GGGGAAAA | -0.0879
19 | AGATCGCC | 0.128
20 | CATAGGAC | -0.0813
21 | CAGAACGA | 0.00724
22 | ACAGCGGG | -0.0101

Row | Sequence | PBM E-score
23 | ATTGCAGC | 0.102
24 | GCTACGTA | 0.0838
25 | ACTTGCAT | 0.0252
26 | ATGCCTGG | -0.138
27 | CCCATACA | -0.13
28 | ACCTAAAC | 0.061
29 | AGCGTCAT | -0.027
30 | CAAAGCGG | 0.255
31 | CTTTACGC | 0.161
32 | CAATCCAG | -0.0467
33 | CACTATGG | -0.122
34 | ACACATAG | 0.00861
35 | GACTCGTA | -0.0514
36 | ACAGTTAG | 0.0289
37 | AGAGTGTG | -0.0412
38 | CAAGAACC | 0.0954
39 | TGCCGTAA | 0.34
40 | CGTTAACG | -0.107
41 | GAGCCTAA | 0.0529
42 | ATAATTCA | 0.217
43 | GAAGGCGC | 0.333
44 | AGCTATTA | -0.0634

Row | Sequence | PBM E-score
45 | CGCAACTA | -0.0465
46 | TCTGACAA | -0.0284
47 | CCGTTCCA | 0.243
48 | CGCCTTGA | 0.0844
49 | TCGGTCAA | 0.0199
50 | CGTCGCTA | 0.215
51 | ATCGAGAT | -0.166
52 | GCACTCCC | -0.0814
53 | GAAACTGA | -0.0484
54 | CCGACCTA | -0.0536
55 | AAAGACCG | -0.0929
56 | CACTACAA | 0.169
57 | ACGCGACG | -0.0983
58 | ACGGCGAT | 0.479
59 | AAAGTTCT | -0.212
60 | AATTTAGC | 0.071
61 | CAAATCTG | -0.0129
62 | ACATAAGT | 0.0342
63 | GATTAAGC | 0.0552
64 | AAACTTCA | 0.189
65 | CTCCCCGA | -0.222
66 | CGGTGAAA | 0.106

Row | Sequence | PBM E-score
67 | AAGAAGAT | 0.0886
68 | AATGGGAA | -0.215
69 | AACATGGC | 0.0494
70 | GGGGCACC | 0.0924
71 | ATACAATG | 0.0101
72 | CTTTTCCC | -0.0234
73 | AGAAAGTG | -0.209
74 | ATGAGTAA | -0.0488
75 | ATTGCATC | 0.115
76 | AAAGTAAA | -0.0703
77 | CTCCTTTA | -0.196
78 | AAGAAATA | 0.0789
79 | ATGCTATA | -0.0011
80 | AACACGTT | 0.024
81 | GCAATAGA | 0.0181
82 | TCTGCAAA | 0.0405
83 | AGCGCCGA | 0.321
84 | AGAGCCTA | -0.0545
85 | GTACATAC | -0.00141
86 | ATCACAAC | 0.112
